{"source": "paper PMC9240354", "about": "“Pharmacokinetics, Pharmacodynamics and Antiviral Efficacy of the MEK Inhibitor Zapnometinib in Animal Models and in Humans” (Frontiers in Pharmacology, 2022)", "tested_on": "MEK1/2", "assay": "phosphorylation of MEK and ERK in PMA-stimulated human PBMCs (Wes)", "conditions": "50 µg/ml 1 h, then 400 nM PMA 30 min"}
{"smiles": "O=C(O)c1ccc(F)c(F)c1Nc1ccc(I)cc1Cl", "note": "[zapnometinib, 2-(2-Chloro-4-Iodophenylamino)-N-3,4-Difluoro benzoic acid]", "values": [{"measurement": "phosphorylation of ERK1/2", "value": "inhibition of the phosphorylation of the MEK1/2-dependent kinase ERK1/2"}]}
